# Measurements published in the RNAGym collection of RNA variant scans (doi:10.7554/elife.90254).
# The source gives no read counts; variants with many changes may rest on few reads.
# B1: OR4K15 (parent)
# chain: GUUAACGGUCAUAGGCCAUGGAAACUAGGAGCACCAUUUCGCUGCCAGUGAAGAAAUGAACAAAGAAAAUCUGGGCCAGGCAGGCAUCAAAAGAAAUAGUCUUGCGCUCAACCAGAAAGUCUGUAAUCAUUUUAAGGGUA
# Variants of: B1
# Assay: self-cleavage, relative activity (ratio to wild type); higher = more cleavage; in vitro, sequencing; the parent is a self-cleaving ribozyme
row,Variant,self-cleavage
1,GUUAACGGUCAUAGGCCAUGGAAGCUAGGAGCACCAUUUCGCUGCCAGUGGAGAAAUGAACAAAGAAAACCUGGGCCAGGCAGGCAUCAAAAGAAAUAGUCUUGCGCUCAACCAGAAAGUCUGUAAUCAUUUUAAGGGUA [A24G A51G U70C],0.72
2,GUUAACGGUCAUAGGCCAUGGAAACUAGGAGCACCAUUUCGCUGCCAGAGAAGAAAUGAACAAAGAAAAUCUGGGCCAGGCAGGCAUCAAAAGAAAUAGUCUUGCGCUCAACCAGAAAGUCUGUAAUCAUUCUAAGGGCA [U49A U132C U139C],0.94
3,GUUAACGGUCAUAGGCCAUGGACACUAGGAGCACCAUUUCGCUGCCAGUGGGGAAAUGAACAAAGAAAAUCUGGGCCAGGCAGGCAUCAAAAGGAGUAGUCUUGCGCCCAACCAGAAAGUCUGUAAUCAUUUUAAGGGUA [A23C A51G A52G A94G A96G U108C],0.03
4,GUUAACGGUCAUAGGCCAUGGAAACUAGGAGCACCAUUUCGCUGCCGGUGAAGAAAUGAACAAAGAAAAUCUGGGCCAGGCAGGCAACAAAAGAAAUAGUCUUGCGCUCGACCAGAAAGUCUGUAAUCAUUUGGAGGGUA [A47G U87A A110G U133G A134G],0.09
5,GUUAACGGUCAUAGGCCAUGGAAACUAGGAGCACCAUUUCGCUGCCAGUGAAGAAAUGAACAAAGAAAAUCUGGGCCAGGCAGGCAUCAAAAGAAAUCGUCCUGCGCUCAACCAGAAAGUCAGUAAUCAUUUUAAGGGUA [A98C U102C U122A],1.27
6,GUUAACGGUCAUAGGCCAUGGAAACUAGGAGCACCAUUUCGCUGCCAGAGAAGAAAUGAACAAUGAAGAUCUGGGCCAGGCAGGCAUCAAAAGAAAUAGUCUUGCGCUCAACCAGAAAGUCUGUAAUCAUUUUAAGGGUA [U49A A64U A68G],0.88
7,GUUAACGGUCAUAGGCCAUGGAAACUAGGAGCGCCAUUUCGCUGCCAGUGAAGAAAUGAACAUAGAAAAUCUGGGCCAGGCAGGCAUCAAAAGAAAUAGUCUUGCGCUCAACCAGAGAGUCUGUAAUCAUUUUAAGGGUA [A33G A63U A117G],0.43
8,GUUAACGGUCAUAGGCCUUGGAAACUAGGAGCACCAUUUCGCCGCCAGUGAAGGAAUGAACAAAGAAAAUCUGGGCCAGGCAGGCAUCAAAAGAAAUAGUCUUGCGCUCAACCAGAAAGUCUGUAAUCAUUUUAAGGGUA [A18U U43C A54G],1.67
9,GUUAACGGUCAUAGGCCAUGGAAACUAGGAGCACCAUUUCGCUGCCUGUGAAGAAAUGAACAAAGAGAAUCUGGGCCAGGCAGGCAUCAAAAGAAAUAGUCUUGCGCUCAACCAGAAAGUCUGUAACCAUUUUAAGGGAA [A47U A67G U127C U139A],0.23
10,GUUAACGGUCAUAGGCCAUGGAAACUAGGAGCACCAUUUCGCUGCCAGUGAAGAAAUGAACAAAGAAAAUCUGGCCCAGGCAGGCAUCAAAAGAAAUAGUCUUGCGCUCAACCAGAAAGCCAGUAAUCAUUUUAAGGGUA [G75C U120C U122A],0.05
11,GUUAACGGUCAUAGGCCGUGGAAACUAGGAGCACCACUUCGCUGCCAGUGAAGAAAUGAACAAAGAAAAUCUGGGCCAGGCAGGCACCAAAAGAAAUAGUCUUGCGCUCAACCAGAAAGUCUGUAAUCAUUUUAAGGGUA [A18G U37C U87C],1.86
12,GUUAACGGUCAUAGGCCAUGGAAACUAGGAGCACCAUUUCGCUGCCAGUGAAGGAAUGAACAAAGAAGGUCUGGGCCAGGCAGGCAUCAAAAGAAAUAGUCUUGCGCUCAACCAGAAAGUCUGUAAUCAUUUUAAGGGUA [A54G A68G A69G],0.55
13,GUUAACGGUCAAAGGCCAUGGAGACUAGGAGCACCAUUUCGCUGCCAGUGAAGAAAUGAACAAAGAAAAUCUGGGCCAGGCAGGCAUCAAAAGAAAUAGUCUUGCGCUCAACCGGAAUGUCUGUAAUCAUUUUAAGGGUA [U12A A23G A114G A118U],0.13
14,GUUAACGGUCAUAGGCCAUGGAAACUAGGAGCACCAUUUCGCUGCCAGCGAAGAAAUGAACAAAGAAAAUCUGGGCCAGGCAGGCAUCAAAAGAAAUAGUCUCGCGCUCAGCCAGAAAGUCUGUAAUCAUUUUAAGGGUA [U49C U103C A111G],0.01
15,GUUAACGGUCAUAGGCCAUGGAAACUAGGAGCACCAUUUCGCUGCCAGUGAAGAAAUGAACAAGGAAAAUCUGGGCCAGGCAGGCAUCAAAAGAAAUAGUCUUGCGCUCAACCAGAAAGACCGUAAUCAUUUUAAGGGUA [A64G U120A U122C],1.53
16,GUUAACGGUCAUAGGCCUUGGAAACUAGGAGCACCAUUUCGCUGCCAGAGAAGAAGUGAACAAAGAAAAUCUGGGCCAGGCAGGCAUCAAAAGAAAUAGUCUUGCGCUCAACCAGAAAGUCUGUAAUCAUUUUAAGGGUA [A18U U49A A56G],1.37
17,GUUAACGGUCAUAGGCCAUGGAAACUAGGAGCACCAUUUCGCUGCCAGUGAGGAAAUGAACAAAGAAAACCUGGGCCAGGCAAGCAUCAAAAGAAAUAGUCUUGCGCUCAACCAGAAAGUCUGUAAUCAUUUUAAGGGUA [A52G U70C G83A],1.18
18,GUUAACGGUCAUAGGCCAUGGAAACUAGGAGCACCAUUUCGCUGCCAGUGAAGAAAUGAACAAAGAAAAUCUGGGCCAGGCAGGCAUCAAAAGAAAUAGCCUUGCGCUCAACCAGAAAGUCUGUAAUCAUUUCGGGGGUA [U100C U133C A134G A135G],2.81
19,GUUAACGGUCAUAGGCCAUGGAAACUAGGAGCACCAUUUCGCUGCCAGUGAAGAAAUGAACAAAGAAAAUCUGGGCCAGGCAGGCACCAAAAGAAAUAGUCCCGCGCUCAACCAGAAAGUCUGUAAUCAUUUUAAGGGUA [U87C U102C U103C],0.35
20,GUUAACGGUCAUAGGCCAUGGAAACUAGGAGCACCAUUACGCUGCCAGUGAUGAAAUGAACAAAGAAAAUCUGGGCCAGGCGGGCAUCAAAAGAAAUAGUCUUGCGCUCAACCAGAAAGUCUGUAAUCGUUUUAAGGGUA [U39A A52U A82G A129G],0.41
